Reference: ChEMBL document CHEMBL4888484, “Replenishing the malaria drug discovery pipeline: Screening and hit evaluation of the MMV Hit Generation Library 1 (HGL1) against asexual blood stage Plasmodium falciparum ,using a nano luciferase reporter read-out” (2022)
Values joined by “and” are separate entries in the source; they are usually repeats but may differ in a detail not shown here. Identical values can stand only once. The whole screen tested about 150,000 compounds, of which about 540 (0.36%) showed an effect of 50% or more. This is one part of the list.

Tested on: Plasmodium falciparum
Experiment: Primary screen in NF54 nanoGlo assay, in single point, at 2uM, 72h; a lower Z score goes with more inhibition
Assay type: functional, Erythrocyte
Details: timepoint 72 hour

OCc1cc(-c2cc(NC3CCCC3)nc3[nH]ccc23)ccc1O
% Inhibition: -10% | Z score: 1.89

Cc1nc(C(C)C)cc(N2CCN(C)[C@]3(CCC(=O)N(CC4CC4)CC3)C2)n1
% Inhibition: 9% | Z score: -0.79

OC[C@H](CNc1ccc(Cl)cn1)Cc1ccccn1
% Inhibition: 6% | Z score: -0.62

Cn1c(-c2ccncc2)nc2cc(C(=O)NCCc3ccco3)cc(NC(=O)C3CCC3)c21
% Inhibition: -30% | Z score: 3.63

COc1ccc(NC(=O)c2c(O)c3cnn(-c4ccc(F)cc4)c3[nH]c2=O)c(OC)c1
% Inhibition: -1% | Z score: 0.18

COc1ccccc1C(N)=NOCCC(C)(C)O
% Inhibition: -2% | Z score: 0.28

CCn1ccnc1[C@H]1OCCC[C@@H]1NC(=O)c1ncnc2[nH]ccc12
% Inhibition: -7% | Z score: 1.32

O=c1c2ccccc2ncn1C[C@H]1CC[C@H](C(=O)Nc2ccc3c(c2)OCCCO3)CC1
% Inhibition: -13% | Z score: 2.49

CC(=O)N(C1CCOCC1)[C@H]1CCCN(C(=O)Cc2cccnc2)C1
% Inhibition: 36% | Z score: -4.12

O=C(CCN1CCCO1)N1CCO[C@@H](Cc2ccccc2Cl)C1
% Inhibition: 8% | Z score: -1.05

CNCC1CCCN1C(=O)C1CCCC(C)C1 (configuration not stated)
% Inhibition: -12% | Z score: 2.19

NC(=O)CN1CCC(O)(Cc2ccc(OC(F)(F)F)cc2)CC1
% Inhibition: 5% | Z score: -0.73

Cc1noc2ncnc(N[C@H]3CCc4c(Cl)cccc43)c12
% Inhibition: 1% | Z score: -0.08

O=C(c1cc2c(cn1)OCCC2)N1CCC(n2cn[nH]c2=O)CC1
% Inhibition: 35% | Z score: -3.99

O=C(NCc1ccc(F)cc1)N1CCn2nc(C3CC3)cc2C1
% Inhibition: -12% | Z score: 1.33

CCOc1ccc(-c2c[nH]c(-c3cc(C)n(-n4cnnc4)c3C)n2)cc1
% Inhibition: 30% | Z score: -3.82

CC(C)c1csc(CNC(=O)CCc2nccn2C)n1
% Inhibition: 1% | Z score: -0.2

Cc1ccc(C(N)=O)c(N2CCC(n3cc(-c4ccc(F)cc4)nn3)CC2)n1
% Inhibition: -8% | Z score: 1.01

Cc1ccc(CNCc2ccc(C3CC3C)o2)o1 (configuration not stated)
% Inhibition: -1% | Z score: 0.17

O=C(c1ccc(Br)o1)N1CC(n2nccn2)C1
% Inhibition: 0% | Z score: -0.04

O=C(Nc1nn(Cc2ccccc2)c2cccc(N3CCOCC3)c12)[C@H]1CCOC1
% Inhibition: -3% | Z score: 0.66

Nc1c(C(=O)Nc2ccc3c(c2)OCCO3)nnn1Cc1ccc(Br)cc1F
% Inhibition: -2% | Z score: 0.31

Cc1noc(C)c1S(=O)(=O)NCC(=O)NCC(=O)O
% Inhibition: -4% | Z score: 0.62

C[C@H]1CN(C(=O)c2ccc(F)cc2)C[C@@H]1c1nc(-c2ccccc2)no1
% Inhibition: -18% | Z score: 2.09

CCOc1cccc(CNC(=O)c2nc3cccnc3n(CC)c2=O)c1
% Inhibition: -5% | Z score: 0.81

O=C(O)CCc1cccc(NC(=O)C(=O)N2CC3(CCCCC3)C2)c1
% Inhibition: -7% | Z score: 1.32

CCN(CC(=O)OCc1csc(NC(C)=O)n1)c1ccccc1
% Inhibition: 11% | Z score: -1.36

CN(C(=O)c1ccc(N2CCOCC2)nc1)c1ccccc1
% Inhibition: -3% | Z score: 0.3

CS(=O)(=O)N1CCC(c2cc(-c3ccc(F)cc3)n[nH]2)CC1
% Inhibition: -11% | Z score: 1.37

c1cc(-c2cnn(-c3nnn[nH]3)c2)ccc1-c1cn[nH]c1
% Inhibition: -1% | Z score: 0.24

O=C(CC(C1CC1)C1CC1)NS(=O)(=O)c1cccc2c1N=S=N2
% Inhibition: 0% | Z score: 0.08

CCCCn1c(N)c(N(Cc2ccccc2OC)C(=O)c2ccoc2C)c(=O)[nH]c1=O
% Inhibition: 38% | Z score: -4.22

O=C(O)c1ccc(Nc2c3ccccc3nc3ccccc23)cc1
% Inhibition: -3% | Z score: 0.3

CC(C)=CCC[C@H](C)CN1CCCn2nc(CNC(=O)C3CCC3)cc2C1
% Inhibition: 1% | Z score: -0.1

Cn1cc(-c2nsc(NC(=O)COC(F)F)n2)cn1
% Inhibition: -7% | Z score: 1.38

Nc1c(NC(=O)NCc2ccc(F)cc2)c(-c2ccc(Cl)cc2)nn1-c1cc(F)ccc1F
% Inhibition: 7% | Z score: -0.83

O=C(Nc1ccccc1)c1ccc(NC(=O)N2CCC3CCC(C2)[S+]3[O-])cc1 (configuration not stated)
% Inhibition: -6% | Z score: 1

Cn1c(CCc2ccccc2NC(=O)C2CCCCC2)nc2ccccc21
% Inhibition: -14% | Z score: 1.65

Cc1cc(NC(=O)c2ccc(-n3ccnc3)nn2)sn1
% Inhibition: -6% | Z score: 1.08

Fc1cccc(Nc2nnnc3c2cnn3-c2ccccc2)c1
% Inhibition: -7% | Z score: 1.05

Cc1cc(N2CCC[C@H](c3nnc[nH]3)C2)n2ncnc2n1
% Inhibition: -18% | Z score: 2.54

CCc1csc(CCNS(=O)(=O)c2cn[nH]c2)n1
% Inhibition: 3% | Z score: -0.58

CC[C@@H](C(=O)Nc1c2c(nn1C(C)(C)C)CS(=O)(=O)C2)c1ccccc1
% Inhibition: -4% | Z score: 0.71

CN1CCN(CCn2cnc(-c3ccccc3)c2-c2c[nH]cn2)CC1
% Inhibition: -5% | Z score: 0.97

COc1ccc(C2=NN(c3nc(C(=O)O)cs3)[C@@](O)(C(F)(F)F)C2)cc1
% Inhibition: 28% | Z score: -3.18

Cc1ccc(OCC(=O)NC2CCCCCC2)c(-n2cnnc2)c1
% Inhibition: 1% | Z score: -0.14

CC(C)Cn1c(C(=O)NC2CC2)nnc1N1CCC[C@H](OCC2CC2)C1
% Inhibition: -9% | Z score: 1.21

COc1ccc(NC(=O)COc2ncnc3oc(C)c(C)c23)cc1OC
% Inhibition: -5% | Z score: 0.63

O=C(c1ncc(F)cc1F)N1CCC2(CCC(=O)N(C3CC3)C2)CC1
% Inhibition: -11% | Z score: 2.14

CCC1(C)CC2(CCCN(CCC(O)(c3ccccc3)c3ccccc3)C2)CCO1 (configuration not stated)
% Inhibition (2 µM): -5% and -1%

CCCn1nnnc1CN(C)[C@@H](C)c1cccc(O)c1
% Inhibition: -2% | Z score: 0.4

C[C@H]1CN(C(=O)Nc2ccc3oc(C4CC4)nc3c2)CCO1
% Inhibition: -13% | Z score: 1.35

CN(C)CCCN1CCN(C(=O)c2cccc(-c3ccc(O)cc3)c2)CC1
% Inhibition: -11% | Z score: 1.23

COc1ccc(Br)c(CN[C@H]2CCCOC2)c1
% Inhibition: -8% | Z score: 1.13

CCOCCC1(C(=O)Nc2ncc(-c3cnccn3)s2)CCCC1
% Inhibition: 9% | Z score: -1.03

Cc1cccc(-n2nc(C)nc2CN2CCCN(C)CC2)n1
% Inhibition: -12% | Z score: 1.53

CCc1nc(CN2CCn3nc(C#N)cc3C2)no1
% Inhibition: -2% | Z score: 0.37

O=C(C1CCCC1)N1CCCN(c2nc(Cc3ccccc3)nc3onc(-c4ccccc4)c23)CC1
% Inhibition: -2% | Z score: 0.27

Cc1ccc(-n2ncc3c(C)n[nH]c(=O)c32)c(C)c1
% Inhibition: -15% | Z score: 3

COC[C@H]1[C@@H](NC(=O)CCc2n[nH]c(C)c2C)[C@H]2CCO[C@H]21
% Inhibition: -8% | Z score: 0.83

CN(C)S(=O)(=O)N1C[C@H]2CC[C@@H](C1)N(CCCOc1ccccc1)C2
% Inhibition: -1% | Z score: 0.12

CS(=O)(=O)c1ccc(NC(=O)c2coc(NC(=O)c3cccs3)n2)cc1
% Inhibition: -6% | Z score: 0.99

O=S(=O)(Nc1cccc2[nH]ncc12)c1cccc(F)c1F
% Inhibition: -2% | Z score: 0.31

COC(=O)c1cc(C)nc2c1c(=O)n(CC(=O)NC1CCCC1)c(=O)n2-c1cccc(OC)c1
% Inhibition: 7% | Z score: -0.86

CC(C)c1ocnc1C(=O)N1CC(C)C(C)C1 (configuration not stated)
% Inhibition: -14% | Z score: 2.09

O=C(NC[C@H]1O[C@@H](CO)[C@@H](O)[C@H]1N1CCOCC1)Nc1ccc(OC(F)(F)F)cc1
% Inhibition: -3% | Z score: 0.63

O=C(Nc1ccc2c(c1)OCO2)Nc1nnc(Cc2ccccc2)o1
% Inhibition: -10% | Z score: 1.14

CC(=O)N1CCC2(CC1)C[C@@H](c1nnc(C)o1)N(CCc1ccccc1)C2
% Inhibition: -7% | Z score: 0.92

O=C(NC1CCCCCC1)C1CCN(S(=O)(=O)c2cc(Cl)ccc2Cl)CC1
% Inhibition: -16% | Z score: 1.98

CC(=O)Nc1ccc2c(c1)cc(C(=O)NCc1ccccc1)n2Cc1cccc(F)c1
% Inhibition: 2% | Z score: -0.28

Cc1cccc(-c2noc(N3CCOCC3)c2CN(C(=O)c2ccc(Cl)cc2)C(C)C)c1
% Inhibition: -8% | Z score: 1.28

O=C(O)C1CCN(C(=O)[C@@H]2CCCN2C(=O)[C@H](Cc2ccccc2)n2c(O)nc3ccccc3c2=O)CC1
% Inhibition: -2% | Z score: 0.21

Cc1ncc(NC(=O)N2CC(C)C2c2ccccc2)c(C2CC2)n1 (configuration not stated)
% Inhibition: -8% | Z score: 1.09

COCCc1nc(-c2occc2C)n(CCO)n1
% Inhibition: 12% | Z score: -2.19

Cc1nc(CCNS(C)(=O)=O)cs1
% Inhibition: 9% | Z score: -1.1

CC(=O)N1CCN(C(=O)C2CC2c2cccc3ccccc23)CC1 (configuration not stated)
% Inhibition: -3% | Z score: 0.24

CN(C1C2CCOC2C1(C)C)S(=O)(=O)c1cccs1 (configuration not stated)
% Inhibition: -13% | Z score: 1.79

CCN(CC)C(=O)Cn1cc(C(=O)NCc2csc(C)n2)nn1
% Inhibition: -11% | Z score: 1.65

CCCn1ccnc1[C@@H]1c2nc[nH]c2CCN1Cc1ccccn1
% Inhibition: -5% | Z score: 0.79

Nc1nc(N2CCN(C(=O)[C@H]3C[C@@H]3c3ccccc3)CC2)cc(=O)[nH]1
% Inhibition: -8% | Z score: 1.36

OCCn1nc(-c2ccco2)nc1C1(CO)CC1
% Inhibition: -11% | Z score: 1.6

Cc1cc(-c2nc(COc3ccc(F)cc3)nn2C2CCN(C)CC2)no1
% Inhibition: -11% | Z score: 1.31

CCCCNC(=O)[C@H]1CCCN(C(=O)c2nnc(C(=O)Nc3cccc(Cl)c3)s2)C1
% Inhibition: -27% | Z score: 2.41

Cc1cc(NC(=O)C(=O)N2CCC[C@H](c3[nH]ncc3-c3ccccc3)C2)no1
% Inhibition: -15% | Z score: 1.43
